The values that follow come from PubChem BioAssay AID463173 (ICCB-Longwood Screening Facility, Harvard Medical School, 2010).

Out of some 52,000 compounds screened, about 4,300 (8.3%) were called active. Rule as the data show it: active = survival mostly below about 52% (no sharp cut-off); inactive = mostly above about 56%. The list shows a part of the results.

The assay deals with DeltatarO mutant. As to the kind of experiment: growth inhibition of S. aureus wild type versus tarO mutant, primary screen, teichoic acid synthesis inhibitors, RN4220, OD600 (AID 463173). To be noted: OD600, 18 h, hits give low values, screened at 18.75 µg/mL (by protocol).
As to `CCOc1ccc(-c2cc3c(=O)n(Cc4nc(-c5ccccc5OCC)oc4C)ccn3n2)cc1Cl`, the survival is inactive: 190%. Next, `Cc1ccc(Cn2c(C)c(CNCC(C)c3ccccc3)c(C(=O)O)c2C)cc1` (centres undefined): inactive: 83%; `Cc1ccc(NC(=O)c2ccc(Cl)cc2Cl)c(C(=O)c2ccccc2)c1`: active: -1%.

In the case of `CNC(=S)N(CCO)Cc1cc2cc3c(cc2[nH]c1=O)OCCO3`, the survival is inactive: 79%. In the case of `CC(C)OC(=O)CSc1nnc(-c2ccc(O)cc2)n1-c1ccccc1`, the survival was inactive: 65%.

In the case of `COCCCNC(=O)C1CCC(Cn2c(=O)c3sccc3n(C)c2=O)CC1` (centres undefined), the survival is inactive: 113%. As for `CCC(CC)C(=O)Nc1ccccc1SCc1cc(=O)c2cccc(C)c2[nH]1`, the figure is inactive: 84%. Next, `COc1ccc2c3c(cccc13)OCC2=O`: inactive: 92%; `Cc1ccc(NC(=O)CN2CCN(c3ccccc3F)CC2)cc1F`: inactive: 102%. For the compound `COc1ccccc1C(=O)NCC(C)(C)CN=C1NS(=O)(=O)c2ccccc21`, the survival is inactive: 78%. As for `CS(=O)(=O)c1ccc(-c2nn[nH]n2)cc1`, the figure is inactive: 102%. As for `Cc1ccc(-n2cnc3cc(C(=O)NCc4ccc(F)cc4)ccc32)c(C)c1`, the figure is inactive: 69%; as for `CCCCc1ccc(-n2nc3cc(Cl)c(NC(=O)c4ccc(OC)cc4)cc3n2)cc1`, inactive: 72%; as for `CCOC(=O)c1ccc2nc(C)cc(Nc3ccc(OC(C)C)cc3)c2c1`, inactive: 133%. Consider `Cc1cccc(C(=O)NCCc2nc3ccccc3n2Cc2ccc(Cl)cc2)c1`, for which the survival is inactive: 79%. As for `Cc1cc(NC(=O)CCC(=O)N(c2ccc(F)cc2)C2(C(=O)NC3CCCCC3)CCCC2)no1`, the survival was inactive: 96%.

Take `CC(Sc1nc2c(c(=O)[nH]1)CCCC2)C(=O)Nc1cc(C(F)(F)F)ccc1Cl` (centres undefined): the survival was inactive: 51%. For the compound `CCOC(=O)c1cccc(NS(=O)(=O)c2ccc3[nH]c4c(c3c2)CCCC4)c1`, the survival was inactive: 80%. With `Cc1ccc(OC(C)C(=O)N2CCN(CCc3ccncc3)CC2)cc1C` (centres undefined), the survival was inactive: 52%.

With `Clc1ccc2oc(-c3ccccc3)nc2c1`, the survival is inactive: 70%. As for `O=S(=O)(Nc1ccc(F)c(Cl)c1)c1ccc(Br)s1`, the figure is active: 10%. As for `Cc1ccc(S(=O)(=O)c2nc(S(=O)(=O)c3ccc(C)cc3)c(NCCCOC(C)C)s2)cc1`, the figure is inactive: 75%.

For the compound `Cc1cccc(N2CCN(C(=O)Cn3ncc4c5ccccc5n(C)c4c3=O)CC2C)c1` (centres undefined), the survival was inactive: 76%. Turning to `O=c1c(S(=O)(=O)c2ccccc2)cn(Cc2ccc(F)cc2)c2cc(N3CCOCC3)c(F)cc12`, the survival is inactive: 73%.

`COc1ccc(C(=O)c2sc3nc(-c4ccc(C)cc4)cc(C(F)(F)F)c3c2N)cc1`: the survival was inactive: 134%. Next, `Cc1ccc(C)c(N2CCN(S(=O)(=O)c3ccc(-c4coc(C)n4)cc3)CC2)c1`: inactive: 98%. As for `CCCCc1c(C)nc2c(-c3ccc(Cl)cc3)c(C)[nH]n2c1=O`, the figure is active: -2%; as for `CC(C)C(=O)N1CCN(c2ccc(NC(=O)c3ccccc3)cc2)CC1`, inactive: 84%; as for `COc1cc(OC)cc(C(=O)Nc2ccc(-c3nc4cc(C(C)C)ccc4o3)cc2)c1`, active: 45%.

Take `CCOC(=O)C(CC)n1nc(C)c2c(C)n(-c3ccc(C)cc3)nc2c1=O` (centres undefined): the survival is inactive: 114%. Next, `COc1ccc(-n2cc(-c3ccc4c(c3)OCO4)n(CC(=O)Nc3cccc(C)c3C)c2=O)c(OC)c1`: inactive: 56%; `CCCCN(CCCNC(=O)c1cc(Nc2ccc(OC)cc2)nc2ccccc12)Cc1ccccc1`: inactive: 86%; `CCOC(=O)CNc1nc(Cl)nc(Nc2ccccc2)n1`: inactive: 84%. As for `CC(=O)Nc1nonc1-c1nnc(SCC(=O)Nc2cc(Cl)ccc2C)n1C`, the figure is inactive: 109%; as for `COc1cccc(C2C=C(c3ccccc3)Nc3c(C(=O)Nc4ccccc4)cnn32)c1OC` (centres undefined), active: 13%. Next, `COc1cc(C(CC(=O)Nc2cccc(C(C)=O)c2)N2Cc3ccccc3C2=O)cc(OC)c1OC` (centres undefined): inactive: 67%; `CCOC(=O)c1c(NC(=O)/C=C/c2ccc(C)cc2)sc(C(C)=O)c1C`: inactive: 79%; `O=C(COCc1cc(-c2ccc(F)cc2)on1)Nc1cc(Cl)ccc1O`: inactive: 74%. As to `COc1ccc(CCNC(=O)CCCn2c(=O)c3ccccc3n(Cc3ccccc3C#N)c2=O)cc1OC`, the survival is active: 87%. As for `Cc1ccccc1-n1nc(CO)c(C(=O)NCC(c2ccccc2)c2ccccc2)n1`, the figure is inactive: 75%.

For the compound `COc1cccc2cc(-c3nc(Nc4cccc(C)c4C)sc3C)c(=O)oc12`, the survival was inactive: 91%. Next, `Nc1nonc1C(=O)NCCNCc1ccccc1F`: inactive: 56%; `COc1ccccc1NC(=O)c1nn(C)c2c1CS(=O)(=O)c1ccccc1-2`: inactive: 51%; `CN(C)S(=O)(=O)c1ccc(C(=O)NCCSc2c(-c3ccc(Br)cc3)[nH]c3ccccc23)cc1`: inactive: 74%.

In the case of `CCCCNC(=O)CC1Nc2cc(C)c(C)cc2NC1=O` (centres undefined), the survival was inactive: 71%. Next, `COc1ccc(Cl)cc1NC(=O)Nc1c[nH]c(=O)[nH]c1=O`: inactive: 78%; `Cc1c(Cl)cccc1N1CCn2c1nc1c2c(=O)n(CC(=O)O)c(=O)n1C`: inactive: 79%; `O=C(NCCc1ccc(Cl)cc1)c1nnc(Cc2ccc(F)cc2)o1`: inactive: 88%. Next, `O=C(CCSCc1ccc(Cl)cc1)NCCc1ccccc1`: active: -5%; `Cc1cccc(C)c1Nc1c(-c2ccc(N3CCOCC3)cc2)nc2ncccn12`: inactive: 73%; `CCn1c(SCC(=O)NC2CCCC2)nnc1C(C)C`: inactive: 97%. For the compound `CNC(=O)c1c(NC(=O)c2cc(=O)c3cc(C)c(C)cc3o2)sc2c1CCCC2`, the survival was inactive: 54%.

As for `COc1ccccc1CNC(=O)Cn1c(-c2ccc(F)cc2)cc(C(C)=O)c1C`, the survival is inactive: 88%. As for `Cc1ccc(CSCCC(=O)N2CCN(c3ccc(F)cc3)CC2)cc1`, the figure is inactive: 77%.

Turning to `O=C(Cn1nc(Cc2ccncc2)c2ccccc2c1=O)Nc1cccc(C(F)(F)F)c1`, the survival was inactive: 71%. Next, `COc1ccc(N2CCN(C(=O)CN3CCSc4ccccc43)CC2)cc1`: inactive: 83%; `CCn1c(=O)cc(OCC(=O)N2CCN(c3ccc(C(C)=O)cc3)CC2)c2ccccc21`: inactive: 87%; `CCc1cccc2c(C#N)cn(CC(=O)NCCOC)c12`: inactive: 103%.

As to `CC(=O)Nc1ccc(NC(=O)CN2C(=O)CC(c3ccco3)Sc3ccccc32)cc1` (centres undefined), the survival is inactive: 82%.
